The record followed here is PMC3174212, “A Negative Feedback Loop That Limits the Ectopic Activation of a Cell Type–Specific Sporulation Sigma Factor of Bacillus subtilis” (PLoS Genetics, 2011).

One experiment concerns the target T1, GST-σ^G (Bacillus subtilis, UniProt P19940 1-260).
T1 construct: RNA polymerase sigma-G factor of Bacillus subtilis; coding region of sigG amplified with primers sigG2016D and sigG2964R from pMS45 and cloned into pGex4T-3; also called GST-σ^Gwt; GST-σ^G fusion protein (wt); not shown: GST, N-terminal, kept
T1 sequence (looked up): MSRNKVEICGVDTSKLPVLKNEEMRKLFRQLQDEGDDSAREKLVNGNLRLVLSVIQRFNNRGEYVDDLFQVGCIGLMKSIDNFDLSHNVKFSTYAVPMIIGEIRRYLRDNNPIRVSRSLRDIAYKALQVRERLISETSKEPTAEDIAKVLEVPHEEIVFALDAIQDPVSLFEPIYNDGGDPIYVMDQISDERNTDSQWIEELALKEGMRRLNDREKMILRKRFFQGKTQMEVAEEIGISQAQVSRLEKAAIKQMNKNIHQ
In words: pull-down; GST or GST-σ^G fusions on glutathione Sepharose beads; soluble extract of B. subtilis AH6608 (CsfB-GFP) 2 h after the onset of sporulation; 30 min at room temperature; washed three times in 200 mM NaCl, 10 mM Tris-HCl pH 8.0, 10% glycerol; immunoblot with anti-GFP and anti-SpoIIAB; densitometry, average of three experiments; only the target purified. In general terms: Immunoblotting shows a protein as a band on a membrane.

Another experiment has as its target T2, GST-σ^GN45A (Bacillus subtilis, UniProt P19940 1-260, N45A).
T2 construct: RNA polymerase sigma-G factor of Bacillus subtilis; coding region of sigGN45A amplified from pJS4 and cloned into pGex4T-3; not shown: GST, N-terminal, kept
T2 sequence (looked up): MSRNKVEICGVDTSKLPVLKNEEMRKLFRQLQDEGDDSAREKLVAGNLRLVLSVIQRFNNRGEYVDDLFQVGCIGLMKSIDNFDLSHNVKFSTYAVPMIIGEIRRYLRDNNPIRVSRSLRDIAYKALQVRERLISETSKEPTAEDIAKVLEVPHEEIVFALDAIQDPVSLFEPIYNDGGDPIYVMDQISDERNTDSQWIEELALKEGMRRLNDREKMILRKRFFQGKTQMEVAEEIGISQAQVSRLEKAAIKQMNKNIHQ
The description is as above.

Experiment [1] deals with T3, GST-σ^GN45E (Bacillus subtilis) (UniProt P19940).
T3 sequence: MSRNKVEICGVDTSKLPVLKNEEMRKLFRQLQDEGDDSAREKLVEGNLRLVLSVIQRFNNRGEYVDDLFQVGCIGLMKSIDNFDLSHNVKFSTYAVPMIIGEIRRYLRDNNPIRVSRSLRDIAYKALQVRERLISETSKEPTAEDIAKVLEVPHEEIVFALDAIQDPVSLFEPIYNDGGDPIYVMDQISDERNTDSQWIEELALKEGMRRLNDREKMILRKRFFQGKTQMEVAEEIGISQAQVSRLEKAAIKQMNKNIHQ
The description is as above.

The target of experiment [2] is T4, σ^F fused to the GAL4 binding domain (Bacillus subtilis) (UniProt P07860).
T4 sequence: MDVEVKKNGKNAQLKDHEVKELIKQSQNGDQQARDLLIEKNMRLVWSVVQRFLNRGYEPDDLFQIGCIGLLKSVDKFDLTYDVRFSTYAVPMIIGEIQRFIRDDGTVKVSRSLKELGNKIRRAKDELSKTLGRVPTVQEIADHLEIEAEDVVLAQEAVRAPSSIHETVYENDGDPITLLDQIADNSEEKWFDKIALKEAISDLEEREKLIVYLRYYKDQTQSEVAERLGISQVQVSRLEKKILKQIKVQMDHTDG
Put plainly: two-hybrid; GAL4-based yeast two-hybrid; CsfB fused to the activation domain (pACT2), sigma factors fused to the binding domain (pAS2-1); lacZ reporter, colony lift with X-Gal and liquid assay with ONPG.

Experiment [3] deals with T5, σ^FE39N fused to the GAL4 binding domain (Bacillus subtilis) (UniProt P07860).
T5 sequence: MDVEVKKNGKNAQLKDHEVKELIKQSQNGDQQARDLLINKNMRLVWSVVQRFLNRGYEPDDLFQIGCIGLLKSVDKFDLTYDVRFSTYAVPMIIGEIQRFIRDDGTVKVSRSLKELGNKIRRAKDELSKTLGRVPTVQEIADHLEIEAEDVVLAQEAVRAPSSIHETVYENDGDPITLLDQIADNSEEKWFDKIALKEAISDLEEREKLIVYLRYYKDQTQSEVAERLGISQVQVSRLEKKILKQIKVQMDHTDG
Described as above.

Experiment [4] concerns the target T6, σ^G fused to the GAL4 binding domain (Bacillus subtilis) (UniProt P19940).
T6 sequence: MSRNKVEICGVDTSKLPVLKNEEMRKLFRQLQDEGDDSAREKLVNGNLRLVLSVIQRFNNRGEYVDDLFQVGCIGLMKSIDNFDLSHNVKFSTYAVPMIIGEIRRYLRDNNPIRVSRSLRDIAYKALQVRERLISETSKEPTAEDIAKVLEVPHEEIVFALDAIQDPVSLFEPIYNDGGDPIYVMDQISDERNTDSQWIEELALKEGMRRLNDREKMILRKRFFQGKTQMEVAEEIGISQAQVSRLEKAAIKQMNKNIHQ
Described as above.

The target in experiment [5] is T7, σ^GN45A fused to the GAL4 binding domain (Bacillus subtilis) (UniProt P19940).
T7 sequence: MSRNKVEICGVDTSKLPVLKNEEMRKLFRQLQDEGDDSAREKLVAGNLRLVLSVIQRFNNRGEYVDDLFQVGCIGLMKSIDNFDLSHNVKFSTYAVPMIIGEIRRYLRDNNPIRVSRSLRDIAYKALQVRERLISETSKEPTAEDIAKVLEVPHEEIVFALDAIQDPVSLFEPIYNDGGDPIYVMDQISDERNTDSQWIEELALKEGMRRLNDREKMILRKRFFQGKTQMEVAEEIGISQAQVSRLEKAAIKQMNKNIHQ
Described as above.

These are yes or no findings as the source states them, for the method shown. For some assays here: In cells and extracts the contact can be indirect. Some binding calls cover weakened binding; strength is not graded here. Tags and fused reporters may be left off the sequences shown.

B1: SpoIIAB (protein, UniProt P10728 1-146)
chain: MKNEMHLEFSALSQNESFARVTVASFIAQLDPTMDELTEIKTVVSEAVTNAIIHGYEENCEGKVYISVTLEDHVVYMTIRDEGLGITDLEEARQPLFTTKPELERSGMGFTIMENFMDDVSIDSSPEMGTTIRLTKHLSKSKALCN
B1: the binding result (in the experiment with GST-σ^G; in the experiment with GST-σ^GN45A; in experiment [1]) was “binds” throughout.

B2: CsfB fused to the GAL4 activation domain (protein, UniProt P37534 1-64)
chain: MDETVKLNHTCVICDQEKNRGIHLYTKFICLDCERKVISTSTSDPDYAFYVKKLKSIHTPPLYS
B2: the binding entry in experiment [2] was “no binding”; in experiment [3], “binds”; in experiment [4] it was “binds”; in experiment [5], “binds”.

B3: CsfB-GFP fusion (natural protein, Bacillus subtilis, UniProt P37534 1-64, looked up)
chain: MDETVKLNHTCVICDQEKNRGIHLYTKFICLDCERKVISTSTSDPDYAFYVKKLKSIHTPPLYS
notes: anti-sigma-G factor CsfB (Gin) of Bacillus subtilis, functional fusion to GFP; The construction of the csfB-gfp fusion stands in Text S1; source: B. subtilis AH6608 (csfB::km ΔsigG ΔamyE::csfB-gfp), soluble extract 2 h after the onset of sporulation in DSM
As for B3, the binding result with GST-σ^G is recorded as “binds”.
